Screen size: about 310,000 compounds; about 2,200 (0.71%) showed an effect of 50% or more. Effects have a minus sign here. The list shows a part of the results.
Target: human ether-à-go-go-related gene (hERG) potassium channel (human, UniProt Q12809)
Experiment: primary screen, population patch clamp on CHO cells stably expressing hERG

Sequence of human ether-à-go-go-related gene (hERG) potassium channel (Q12809 whole entry, looked up): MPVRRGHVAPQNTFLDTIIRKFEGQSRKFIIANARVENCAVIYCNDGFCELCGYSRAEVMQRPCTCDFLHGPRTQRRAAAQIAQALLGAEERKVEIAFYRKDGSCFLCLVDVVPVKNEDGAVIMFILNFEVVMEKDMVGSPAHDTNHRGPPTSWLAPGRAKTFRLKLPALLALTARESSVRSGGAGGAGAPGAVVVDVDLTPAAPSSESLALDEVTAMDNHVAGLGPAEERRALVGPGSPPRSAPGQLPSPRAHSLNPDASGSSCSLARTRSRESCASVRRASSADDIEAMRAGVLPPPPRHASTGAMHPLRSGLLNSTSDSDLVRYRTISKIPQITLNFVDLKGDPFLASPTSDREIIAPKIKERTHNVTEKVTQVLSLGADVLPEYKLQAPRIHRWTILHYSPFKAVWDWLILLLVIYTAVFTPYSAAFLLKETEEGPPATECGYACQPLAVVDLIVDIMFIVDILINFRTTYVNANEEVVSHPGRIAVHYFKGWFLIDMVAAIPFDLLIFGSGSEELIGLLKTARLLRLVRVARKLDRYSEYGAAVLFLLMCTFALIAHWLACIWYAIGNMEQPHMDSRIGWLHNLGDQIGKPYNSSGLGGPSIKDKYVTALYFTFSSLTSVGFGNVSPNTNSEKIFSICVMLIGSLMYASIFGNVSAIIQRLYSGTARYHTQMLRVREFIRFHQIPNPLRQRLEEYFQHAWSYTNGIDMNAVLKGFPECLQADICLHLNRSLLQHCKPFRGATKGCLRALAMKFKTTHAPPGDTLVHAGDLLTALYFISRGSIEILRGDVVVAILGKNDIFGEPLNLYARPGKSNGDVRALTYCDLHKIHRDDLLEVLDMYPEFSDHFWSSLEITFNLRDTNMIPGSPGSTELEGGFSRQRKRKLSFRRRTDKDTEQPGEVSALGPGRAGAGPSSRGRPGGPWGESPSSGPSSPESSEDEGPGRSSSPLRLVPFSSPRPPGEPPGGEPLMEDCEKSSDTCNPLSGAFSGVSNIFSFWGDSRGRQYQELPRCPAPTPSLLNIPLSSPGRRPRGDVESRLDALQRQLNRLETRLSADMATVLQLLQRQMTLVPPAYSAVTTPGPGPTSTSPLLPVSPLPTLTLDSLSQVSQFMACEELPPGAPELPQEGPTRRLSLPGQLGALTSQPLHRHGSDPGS

Row | Structure (SMILES) | hERG current change (%, negative = inhibition) at 1uM [%]
1 | O=C(O)c1ccccc1NCc1ccsc1 | 8.46
2 | CC(NC(=O)C(Cc1ccccc1)NC(=O)c1ccccc1)C(=O)O (stereo not drawn) | 21
3 | CC(=O)Nc1ccc(S(=O)(=O)Nc2nc3cc4c(cc3nc2Cl)OCCO4)cc1 | 7.87
4 | Cc1ccc([N+](=O)[O-])cc1N=C(c1cccc(Br)c1)N1CCOCC1 | 4.72
5 | OCCC1CN(Cc2cccc(-n3cccn3)c2)CCN1Cc1ccccc1 (stereo not drawn) | -13.4
6 | O=C(c1cccc(Cl)c1)C1CCCN(Cc2ccc(N3CCNC3=O)cc2)C1 (stereo not drawn) | -7.54
7 | Cc1cc(/C=C2/NC(=O)N(Cc3ccccc3F)C2=O)c(C)n1-c1ccccn1 | 15
8 | COc1ccccc1CC(=O)N1CCCC1 | 13.7
9 | COc1ccc(NC(=S)NC(=O)c2cccnc2)cc1 | 11.5
10 | CCCn1c(SCC(=O)Nc2sc(C)c(C)c2C(=O)OCC)nc2c1c(=O)n(C)c(=O)n2C | -0.657
11 | CCCc1nc2ccccc2n1CC(O)COc1ccc(NC(C)=O)cc1 (stereo not drawn) | 2.54
12 | CCC(=O)Nc1ccc(-c2ccc(N3CCC(C)CC3)nn2)cc1 | 12.1
13 | Cl.Cn1nnnc1SCCNCc1ccccc1OCc1ccc(Cl)cc1 | -31.8
14 | O=C(CCCCC(=O)Nc1ccc(F)cc1F)Nc1ccc(F)cc1F | 7.17
15 | COCCn1c(=O)[nH]c2cc(C(=O)Nc3cccc(C(C)=O)c3)ccc2c1=O | -17.4
16 | CC(=O)OC(C(=O)NC1CCCCC1)c1ccccc1F (stereo not drawn) | 13.8
17 | CC1(c2ccccc2)NC(=O)N(CC(=O)NNC(=O)c2cccc(Cl)c2)C1=O (stereo not drawn) | 0.487
18 | O=C(NCCc1c[nH]c2ccccc12)c1cccc(Br)c1 | 8.79
19 | COc1ccc(OC)c(NC(=O)c2ccc(OCC(=O)N3CCOCC3)c(OC)c2)c1 | 9.79
20 | Cc1ccnc(-n2c(C)cc(/C=C3\C(=O)NC(=S)N(C)C3=O)c2C)c1 | 9.12
21 | CCN(CC)c1ccc(-c2nnc(SCC(=O)Nc3ccccc3C#N)n2-c2ccccc2)cc1 | 6.92
22 | COc1ccc(S(=O)(=O)n2c([N+](=O)[O-])cnc2C)c(C)c1C | 12.9
23 | COCCOC(=O)c1ccc(NC(=O)COc2ccc([N+](=O)[O-])cc2)cc1 | 7.53
24 | COc1ccc(CCNC(=O)c2ccc(Cl)cc2)cc1OC | 9
25 | O=C(CC(C(=O)O)N1CCOCC1)Nc1ccc(Cl)cc1 (stereo not drawn) | 9.6
26 | COc1ccc(/C=N/NC(=O)c2cccc(NC(=O)c3ccc(Cl)cc3)c2)c(OC)c1 | 6.89
27 | CC(=O)c1nn(-c2cccc(Br)c2)cc1C(=O)c1ccc(C)cc1 | 11.9

Row | Structure (SMILES) | hERG current change (%, negative = inhibition) at 1uM [%]
28 | CCC(C)N(C(=O)COC(=O)CSc1ccc(C)c(C)c1)C1CCS(=O)(=O)C1 (stereo not drawn) | 4.13
29 | N#C/C(=C(/O)c1ccc([N+](=O)[O-])cc1)c1nc2ccccc2[nH]1 | 10.7
30 | Cc1ccccc1NC(=S)NCc1ccc2[nH]c3c(c2c1)CCCC3 | 6.19
31 | COc1cccc(NC2c3ccccc3C(=O)N2Cc2ccco2)c1 (stereo not drawn) | -0.361
32 | C=C(Cl)COC(=O)C1C2C=CC(C2)C1C(=O)O (stereo not drawn) | 6.19
33 | CCCCS(=O)(=O)N1CCCC(C(=O)Nc2ccc3c(c2)CCC3)C1 (stereo not drawn) | 6.94
34 | CCC1(c2ccccc2)NC(=O)N(CC(=O)Nc2ccc(Cl)c(S(=O)(=O)N3CCCCC3)c2)C1=O (stereo not drawn) | 18.8
35 | O=C(COC(=O)c1ccc(S(=O)(=O)N2CCCC2)cc1)NCc1ccc(Cl)cc1 | 0.537
36 | Cc1cccc(NNC(=O)C(=O)NNc2cccc(C)c2)c1 | 13.1
37 | O=C(CN1C(=O)c2ccccc2S1(=O)=O)NCCSc1ccccc1 | 4.96
38 | S=c1[nH]nc(-c2ccncc2)n1/N=C/c1cn(-c2ccccc2)nc1-c1ccc(Cl)cc1 | -0.199
39 | Cn1cnnc1Sc1ccc(C(=O)OCC(=O)Nc2cc(Cl)cc(Cl)c2)cc1[N+](=O)[O-] | 0.871
40 | COc1ccc(CC(=O)NNC2=Nc3cccc4cccc2c34)cc1 | 14.1
41 | CCCOc1ccc(C2C(C(=O)c3cc4ccccc4o3)=C(O)C(=O)N2c2cc(C)on2)cc1 (stereo not drawn) | 15.6
42 | COc1ccc(CNC(=O)CN2C(=O)COc3ccc(S(=O)(=O)NC4CCCC4)cc32)cc1 | 1.06
43 | CCOC(=O)c1oc2c(c1C)C(=O)CCC2 | 15.4
44 | COc1ccc(CN(CC(=O)NCCc2ccccc2)C(=O)CCC(=O)Nc2ccccn2)cc1 | -4.78
45 | COc1cc(S(=O)(=O)NCc2ccccc2)ccc1-n1cnnn1 | 1.45
46 | CCOC(=O)c1[nH]cnc1C(=O)Nc1ccc(C)cc1 | 11.8
47 | S=c1nccc(-c2ccc3c(c2)CCO3)[nH]1 | 3.6
48 | O=C(NCCCc1ccccc1)C(=O)NCC1OCCN1S(=O)(=O)c1ccc(F)cc1 (stereo not drawn) | 12
49 | CCOC(=O)c1c(C)n(OCc2ccccc2)c2ccc3c(no[n+]3[O-])c12 | 10.8
50 | COc1ccc(C2=NCC(=O)N(CC(=O)NCc3ccco3)c3sc4c(c32)CCCC4)cc1OC | 10.1
51 | CCN(CC)CCn1c2c(c(SCC(=O)NCc3ccccc3)nc1=O)CCCC2 | -5.34
52 | COc1ccc(/C(C)=N/Nc2nc3ccccc3n3cnnc23)cc1OC | -3.91
53 | CCN(CC)S(=O)(=O)c1ccc(C(=O)NCc2ccc3c(c2)OCO3)cc1 | 4.58
54 | O=C1CC(N2CCN(S(=O)(=O)c3cccc(C(F)(F)F)c3)CC2)C(=O)N1Cc1ccccc1 (stereo not drawn) | 11.1
